Consider 60 molecules from the supplement of paper PMC9446081.

Hit rate of the full screen: of about 39,000 compounds, about 220 (0.56%) showed activity. The list shows a part of the results.
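Note: static incubation at 37 °C against the wild-type strain, values averaged over two biological replicates.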

In this assay the test system is Escherichia coli K-12 BW25113. Description: relative growth (OD600 normalised to plate interquartile mean) (fraction); higher = less growth inhibition, active = 0.2 or less. To be noted: 50 µM; LB; incubation time: overnight (16-24 h).
For `COC(=O)[C@H]1CCCC[C@@H]1CN`, the relative growth was inactive: 0.998.
`COc1ccc(S(=O)(=O)Nc2ccc3c(c2)C(=O)N([C@@H](C)CO)C[C@@H](C)[C@@H](CN(C)Cc2ccc(C(F)(F)F)cc2)OCCCC[C@@H](C)O3)cc1`: the relative growth is inactive: 0.898.
As for `C[C@@H]1CN([C@@H](C)CO)C(=O)c2cc(/C=C/c3ccccc3)cnc2O[C@H]1CN(C)C(=O)C1CCOCC1`, the figure is inactive: 1.01.
As for `C[C@H]1CN([C@@H](C)CO)C(=O)c2cc(NC(=O)Nc3ccc(C(F)(F)F)cc3)ccc2O[C@H]1CN(C)Cc1ccc2c(c1)OCO2`, the figure is inactive: 0.989; as for `COc1ccc(CCN2C(=O)[C@@]3(c4ccc([N+](=O)[O-])cc4)CC(=O)N(C4CCCCC4)[C@@H]3c3ccc(CO)cc32)cc1`, inactive: 1.01.
`Nc1ccn([C@@H]2C[C@@H](O)[C@H](CO)O2)c(=O)n1`: the relative growth was inactive: 1.
With `Fc1ccc(Nc2ncnc3sc(-c4ccccc4)cc23)cc1`, the relative growth was inactive: 1.
Turning to `C[C@H]1CN([C@@H](C)CO)C(=O)c2cccc(NS(=O)(=O)c3ccccc3)c2O[C@@H]1CN(C)Cc1ccc(Oc2ccccc2)cc1`, the relative growth is inactive: 0.999.
Turning to `COc1ccc(NC(=O)Nc2ccc3c(c2)[C@H]2C[C@@H](CC(=O)N4CCN(C)CC4)O[C@@H](CO)[C@H]2O3)cc1`, the relative growth is inactive: 0.985.
As for `C[C@H](CO)N1C[C@H](C)[C@@H](CN(C)C(=O)CCCN(C)C)OCCCC[C@H](C)Oc2ccc(NS(C)(=O)=O)cc2C1=O`, the figure is inactive: 0.849.
To `C[C@@H]1CN([C@H](C)CO)C(=O)c2cc(/C=C/c3ccccc3)cnc2O[C@@H]1CN(C)S(=O)(=O)c1cn(C)cn1` belongs inactive: 1.01; to `CC(C)NC(=O)Nc1ccc2c(c1)C(=O)N([C@@H](C)CO)C[C@@H](C)[C@H](CN(C)S(=O)(=O)c1ccc(Cl)cc1)O2`, inactive: 0.99; to `Cc1cc2nc3c(=O)[nH]c(=O)nc-3n(C[C@H](O)[C@H](O)[C@H](O)COP(=O)(O)O)c2cc1C`, inactive: 0.952.
To `C[C@H]1CCCC[C@]12NC(=O)NC2=O` belongs inactive: 0.989; to `Cc1ccc2c(=O)c3ccccc3n(CCCN)c2c1C`, inactive: 0.885; to `Cc1cc(C(=O)Nc2cccc3c2O[C@@H](CN(C)C(=O)Nc2ccc4c(c2)OCO4)[C@H](C)CN([C@@H](C)CO)C3=O)n(C)n1`, inactive: 0.993.
Consider `O=C(CN1CCOCC1)NCC[C@H]1CC[C@H](NC(=O)c2ccc3c(c2)OCO3)[C@@H](CO)O1`, for which the relative growth is inactive: 1.01.
As to `C[C@@H]1CN([C@H](C)CO)C(=O)c2cc(NC(=O)Nc3cccc4ccccc34)ccc2O[C@@H](C)CCCCO[C@H]1CN(C)Cc1ccc(Cl)c(Cl)c1`, the relative growth was inactive: 1.01.
To `CN1C(=O)c2cc(NC(=O)c3ccc(F)cc3)ccc2OC[C@@H]2O[C@@H](CC(=O)N3CCOCC3)CC[C@@H]21` belongs inactive: 0.963; to `COCC(=O)N1C[C@@H](C)[C@H](OC)CN(C)C(=O)c2ccc(NC(=O)c3ccc(F)cc3)cc2OC[C@@H]1C`, inactive: 1.01.
Take `COC(=O)[C@H]1[C@H](CO)[C@H]2Cn3c(ccc(-c4ccccc4)c3=O)[C@H]2N1S(C)(=O)=O`: the relative growth was inactive: 1.01.
As for `CCCCCCCCCCCC(CC1OC(=O)C1CCCCCC)OC(=O)C(CC(C)C)NC=O` (stereo not given), the relative growth was inactive: 0.828.
In the case of `C[C@@H]1CN([C@H](C)CO)C(=O)c2cc(NS(C)(=O)=O)ccc2O[C@@H](C)CCCCO[C@@H]1CN(C)Cc1ccc(C(F)(F)F)cc1`, the relative growth was inactive: 0.97.
`CCCN(C)C[C@@H]1OCCCC[C@@H](C)Oc2ccc(NC(=O)Nc3ccc(C(F)(F)F)cc3)cc2C(=O)N([C@H](C)CO)C[C@@H]1C`: the relative growth was inactive: 0.997.
To `CC(C)NC(=O)Nc1ccc2c(c1)C(=O)N([C@H](C)CO)C[C@H](C)[C@H](CN(C)Cc1ccccc1)OCCCC[C@@H](C)O2` belongs inactive: 1.01; to `COc1ccc(CN(C)C[C@H]2Oc3ccc(NC(=O)Nc4cccc5ccccc45)cc3C(=O)N([C@@H](C)CO)C[C@@H]2C)cc1`, inactive: 1.06; to `CC1(C)NCS[C@H]1C(=O)O`, inactive: 0.949.
To `CC(C)NC(=O)N(C)C[C@@H]1Oc2cc(C#Cc3ccc(F)cc3)ccc2S(=O)(=O)N([C@H](C)CO)C[C@@H]1C` belongs inactive: 0.992; to `COCC#Cc1cnc2c(c1)C(=O)N([C@H](C)CO)C[C@@H](C)[C@H](CN(C)S(=O)(=O)c1ccccc1)O2`, inactive: 1.03.
For the molecule `Nc1ncnc2c1ncn2[C@@H]1O[C@H](C[C@@H](N)CC[C@H](N)C(=O)O)[C@@H](O)[C@H]1O`, the relative growth is inactive: 1.01.
As for `COc1ccc(CN(C)C[C@@H]2OCCCC[C@@H](C)Oc3ccc(NC(=O)Cc4ccccc4)cc3C(=O)N([C@H](C)CO)C[C@H]2C)cc1`, the figure is inactive: 0.998; as for `COc1ccc(C2CC(=O)c3c(O)cc(OC4OC(COC5OC(C)C(O)C(O)C5O)C(O)C(O)C4O)cc3O2)cc1O` (stereo not given), inactive: 1.01; as for `C[C@@H]1CCCCO[C@@H](CN(C)S(=O)(=O)c2ccc(Cl)cc2)[C@H](C)CN([C@H](C)CO)C(=O)c2cc(NC(=O)Cc3ccccc3)ccc2O1`, inactive: 1.05.
As for `C[C@@H]1CN([C@@H](C)CO)C(=O)c2cc(NS(=O)(=O)c3cccs3)ccc2O[C@@H](C)CCCCO[C@H]1CN(C)C(=O)Nc1cccc2ccccc12`, the figure is inactive: 1.03; as for `O=C(C[C@@H]1CC[C@@H]2NC[C@H](O)COC[C@H]2O1)NCCN1CCCCC1`, inactive: 0.99; as for `Cc1ccc(S(=O)(=O)N(C)C[C@@H]2Oc3c(NC(=O)Nc4cccc5ccccc45)cccc3C(=O)N([C@@H](C)CO)C[C@H]2C)cc1`, inactive: 0.97.
As for `C[C@@H]1CCCCO[C@H](CN(C)Cc2ccc(C(=O)Nc3ccccc3N)cc2)[C@H](C)CN([C@@H](C)CO)C(=O)c2cc(N(C)C)ccc2O1`, the figure is inactive: 0.984; as for `C[C@@H]1CN([C@@H](C)CO)C(=O)c2cc(NC(=O)Nc3ccc(C(F)(F)F)cc3)ccc2O[C@H]1CN(C)Cc1ccc(C(=O)Nc2ccccc2N)cc1`, inactive: 1.03.
Take `CC(C)NC(=O)N(C)C[C@@H]1Oc2c(NC(=O)C3CCCCC3)cccc2C(=O)N([C@H](C)CO)C[C@H]1C`: the relative growth was inactive: 0.989.
With `CCS(=O)(=O)Nc1ccc2c(c1)C(=O)N(C)[C@H]1CC[C@H](CC(=O)N[C@@H]3CCN(Cc4ccccc4)C3)O[C@@H]1CO2`, the relative growth is inactive: 1.
For `N=C1NCCC(C2NC(=O)C(=CNC(N)=O)NC(=O)C(CNC(=O)CC(N)CCCN)NC(=O)C(CO)NC(=O)C(N)CNC2=O)N1.O=S(=O)(O)O` (stereo not given), the relative growth was inactive: 1.04.
`C[C@@H]1CN([C@H](C)CO)C(=O)Cc2cc(NS(=O)(=O)c3ccc(Cl)cc3)ccc2O[C@H]1CN(C)C(=O)Nc1ccc(C(F)(F)F)cc1`: the relative growth was inactive: 0.987.
As for `COc1cc(OC)c2c(c1Cl)OC1(C2=O)C(O)=CC(=O)CC1C` (stereo not given), the figure is inactive: 0.925; as for `O=C1OCCC=C[C@H]2O[C@@]34C=CCN(c5ccc(Cl)cc5)C(=O)[C@H]3N(CCCCCCO)C(=O)[C@@H]4[C@@H]12`, inactive: 0.997; as for `COC(=O)C[C@H]1CC[C@@H]2[C@H](COC[C@@H](O)CN2S(=O)(=O)c2ccccc2C)O1`, inactive: 0.942.
To `C[C@@H]1CN([C@@H](C)CO)C(=O)c2cc(/C=C/c3ccccc3)cnc2O[C@H]1CN(C)C(=O)c1cnccn1` belongs inactive: 0.995; to `C[C@@H]1CN([C@H](C)CO)C(=O)Cc2cc(NC(=O)c3ccncc3)ccc2O[C@H]1CN(C)C(=O)Nc1ccc2c(c1)OCO2`, inactive: 0.997.
Regarding `COc1ccc(NC(=O)O[C@H]2[C@@H]3OC(=O)[C@H](Cc4cccc(Br)c4)C/C=C/C[C@@H](Cc4cccc(Br)c4)C(=O)O[C@H]3[C@@H](OC)O[C@@H]2CO)cc1`, the relative growth is inactive: 1.01.
Turning to `CO[C@@H]1CN(C)C(=O)c2ccc(NS(=O)(=O)c3ccccc3F)cc2OC[C@@H](C)N(S(C)(=O)=O)C[C@H]1C`, the relative growth is inactive: 0.988.
To `COc1cccc(S(=O)(=O)N2C[C@@H](O)COC[C@H]3O[C@@H](CC(=O)N4CCOCC4)CC[C@@H]32)c1` belongs inactive: 0.994; to `C[C@@H]1CCCCO[C@H](CN(C)S(=O)(=O)c2ccc(Cl)cc2)[C@@H](C)CN([C@@H](C)CO)C(=O)c2cc(NC(=O)CCC(F)(F)F)ccc2O1`, inactive: 0.967; to `COc1ccc(CN(C)C[C@@H]2OCCCC[C@H](C)Oc3ccc(NC(=O)Nc4ccc(OC)cc4)cc3C(=O)N([C@@H](C)CO)C[C@H]2C)cc1`, inactive: 0.985.
As for `CC(C)CC#Cc1ccc2c(c1)O[C@H](CN(C)CC1CCOCC1)[C@@H](C)CN([C@H](C)CO)S2(=O)=O`, the figure is inactive: 1.03.
As for `C[C@@H]1CN([C@@H](C)CO)C(=O)c2cc(NS(=O)(=O)c3ccccc3)ccc2O[C@@H](C)CCCCO[C@@H]1CN(C)C(=O)c1ccccc1`, the figure is inactive: 0.967.
For `CCOC(=O)/C=C/C(=O)N1CCC=CC1=O`, the relative growth was inactive: 0.951.
To `C[C@H](CO)N1C[C@H](C)[C@@H](CN(C)S(=O)(=O)c2ccccc2)Oc2ncc(-c3cccc(C(=O)N(C)C)c3)cc2C1=O` belongs inactive: 1.
As for `C[C@H](CO)N1C[C@H](C)[C@@H](CN(C)S(=O)(=O)c2ccccc2)Oc2c(NC(=O)C3CC3)cccc2C1=O`, the figure is inactive: 0.97; as for `COc1ccc(C(=O)Nc2cccc(CN3C(=O)[C@@]4(O[C@@H](CC(=O)N5CCC[C@H]5CO)[C@H]([Si](C)(C)c5ccc(OC)cc5)[C@H]4C)c4ccccc43)c2)cc1`, inactive: 1.
In the case of `N#CN=C1NC(=O)CC(=O)N1`, the relative growth is inactive: 1.
Consider `C[C@H](CO)N1C[C@H](C)[C@@H](CN(C)C(=O)Nc2ccc(C(F)(F)F)cc2)Oc2ccc(NC(=O)Cc3ccccc3)cc2CC1=O`, for which the relative growth is inactive: 1.04.
